Reference: PubChem BioAssay AID488969 (Vanderbilt High Throughput Screening Facility, 2010)
In all, about 110,000 compounds were measured (“z-score”: median about -0.1, highest 2% from about 2 on). This is one part of the list.

What follows are molecules tested against Metabotropic glutamate receptor 8 (Rattus norvegicus) (UniProt P70579) (assay: mGluR8 Gi/Go-coupled signaling modulation – cell-based, rat, thallium flux, HTS, primary screen (AID 488969)). Details: HEK293 rat mGluR8, GIRK (G protein-gated inwardly rectifying potassium channel) thallium flux, FluoZin2; at 10 µM; stronger effect = higher value; submaximal glutamate (EC20) added with thallium.
Chain of UniProt P70579 (P70579 whole entry, looked up): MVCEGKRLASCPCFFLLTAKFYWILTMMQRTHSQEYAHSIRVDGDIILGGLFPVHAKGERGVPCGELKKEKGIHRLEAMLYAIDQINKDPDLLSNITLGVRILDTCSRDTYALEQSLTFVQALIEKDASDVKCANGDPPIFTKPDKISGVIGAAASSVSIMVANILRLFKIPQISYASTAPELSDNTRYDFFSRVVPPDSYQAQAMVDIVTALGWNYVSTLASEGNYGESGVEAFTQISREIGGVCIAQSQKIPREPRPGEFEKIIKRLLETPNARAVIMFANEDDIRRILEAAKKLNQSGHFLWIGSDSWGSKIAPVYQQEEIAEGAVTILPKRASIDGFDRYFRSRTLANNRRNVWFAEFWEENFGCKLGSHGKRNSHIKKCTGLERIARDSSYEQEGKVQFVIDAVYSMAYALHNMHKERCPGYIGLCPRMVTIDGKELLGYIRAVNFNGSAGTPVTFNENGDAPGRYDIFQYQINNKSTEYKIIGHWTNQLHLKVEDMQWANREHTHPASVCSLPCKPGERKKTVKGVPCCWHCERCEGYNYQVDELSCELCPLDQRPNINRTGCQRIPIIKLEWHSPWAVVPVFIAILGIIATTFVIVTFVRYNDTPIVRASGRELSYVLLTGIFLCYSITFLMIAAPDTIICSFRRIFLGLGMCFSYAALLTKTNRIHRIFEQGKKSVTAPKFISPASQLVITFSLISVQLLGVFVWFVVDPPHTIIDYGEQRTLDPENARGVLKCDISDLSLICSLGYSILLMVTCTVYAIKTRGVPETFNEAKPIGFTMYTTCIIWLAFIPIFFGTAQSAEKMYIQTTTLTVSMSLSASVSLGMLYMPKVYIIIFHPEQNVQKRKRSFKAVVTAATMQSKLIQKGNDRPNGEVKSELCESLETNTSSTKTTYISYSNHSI

| Structure (SMILES) | z-score |
| --- | --- |
| O=C1CC(=O)N2N=C(c3ccc([N+](=O)[O-])cc3)SC2=N1 | -0.0424 |
| Cn1c2ccccc2c2ncn(CCCN3CCOCC3)c(=O)c21 | -0.236 |
| CC1(C)CC(=O)C2=C(C1)N(c1ncn[nH]1)C(N)=C(C#N)C2c1ccccc1 (configuration not stated) | -1.1 |
| CCCCNC(=O)OCC(CC)NC(=O)OC(C)C (configuration not stated) | 0.755 |
| O=[N+]([O-])c1cc(C(F)(F)F)ccc1N1CCN(S(=O)(=O)c2ccc3ccccc3c2)CC1 | -0.295 |
| c1ccc(-c2csc(N3CCN(c4ccccn4)CC3)n2)cc1 | -0.124 |
| O=C(NCCCN1CCN(c2cccc(Cl)c2)CC1)C1CCC(=O)N1Cc1ccccc1Cl (configuration not stated) | -0.31 |
| CCN(Cc1cc2cc(OC)ccc2[nH]c1=O)C(=O)Cc1ccc(OC)cc1 | -0.165 |
| CCN(CC)c1nc2c3c(nc4c(c3c1C#N)CC(=O)N4c1ccc(Cl)cc1)NC(C)=N2 | -0.314 |
| c1ccc(-n2ncc3c2ncn2nc(-c4ccco4)nc32)cc1 | 0.333 |
| COc1cc(/C=N/NC(=O)c2c(-c3ccccc3)noc2C)cc(OC)c1OC | -0.437 |
| O=C(NCCCN1CCOCC1)c1cc2c(s1)CCC2 | -0.0076 |
| CC1CC(C)(C)NC(=O)O1 (configuration not stated) | -0.166 |
| Cc1cc(C(=O)N/N=C/c2ccc(-c3cccc(Cl)c3Cl)o2)n[nH]1 | -0.0988 |
| CCOC(=O)c1nnc(-c2cccs2)nc1NC(C)C | -1.51 |
| COc1ccc(NC(=S)NCCc2c[nH]c3ccc(OC)cc23)c(OC)c1 | 0.294 |
| O=C(O)c1ccc(/C=N/Nc2nnnn2-c2ccccc2)cc1 | -0.113 |
| O=C(CCCOc1ccccc1)N1CCN(C(=O)c2ccco2)CC1 | -0.244 |
| Cc1nc(N[C@@H](Cc2c[nH]c3ccccc23)C(=O)O)c2oc3ccccc3c2n1 | -0.512 |
| O=C(N/N=C/c1ccccn1)c1ccco1 | 0.413 |
| Cc1ccc(C(=O)NNC(=O)CSc2nnc(-c3ccccc3)n2Cc2ccccc2)cc1 | -0.425 |
| COc1ccc(Br)cc1C1N2CC3(C)CN1CC(C)(C2)C3=O (configuration not stated) | 0.9 |
| COCCCN1C(=O)C(O)=C(C(=O)c2ccco2)C1c1ccc(Br)cc1 (configuration not stated) | -2.88 |

| Structure (SMILES) | z-score |
| --- | --- |
| COc1ccc(C(=O)/C=C(\C)NCc2ccc3c(c2)OCO3)cc1 | -0.271 |
| O=C(O)c1ccc(N2Cc3ccccc3C2)cc1O | -0.168 |
| CN(Cc1ccccc1)S(=O)(=O)c1ccc(NC(=S)NC(=O)C2CCCC2)cc1 | -0.095 |
| CCCC1=C(C(=O)OCC)C(c2ccncc2)n2ncnc2N1 (configuration not stated) | -0.252 |
| O=C(NCC1CCCO1)c1onc(CSc2ccc(F)c(F)c2)c1C(=O)O (configuration not stated) | -0.0992 |
| CC(C)c1ccc(NC(=O)c2snc3ccc(Cl)cc23)cc1 | -0.116 |
| COc1ccc2c(c1)c1c(n2C(C)=O)C(OC(C)=O)=NCC1 | -0.386 |
| COc1ccc2c(c1)N(C(=O)CN1C(=O)C3CCCCC3C1=O)C(C)(C)C=C2C (configuration not stated) | -0.463 |
| S=C(Nc1ccc(Br)cc1)NC1CCCCC1 | 0.116 |
| C/C(=N/OC(=O)c1ccc(C)cc1)c1cccs1 | -0.0962 |
| COC(=O)CC1C(=O)NCCN1C(=S)NC(=O)C(c1ccccc1)c1ccccc1 (configuration not stated) | -0.0622 |
| COc1cccc(C(=O)NNC2=CC(=O)CC(C)(C)C2)c1 | -0.126 |
| CCNCCOC(c1ccccc1)c1ccccc1 | 0.455 |
| COc1ccc(-n2c(SCC(=O)Nc3cc(C)on3)nc3ccc(O)cc3c2=O)cc1OC | -0.81 |
| CCc1ccccc1NC(=O)CSc1nc(-c2ccccc2)nn1C(=O)c1cccc([N+](=O)[O-])c1 | -0.303 |
| CCc1cc2c(N3CCN(c4ccccc4)CC3)ncnc2s1 | -1.96 |
| O=C(/C=C/c1ccc2c(c1)OCO2)Nc1c(C(=O)O)[nH]c2ccccc12 | 0.14 |
| CCNC(=S)SCCOc1ccccc1C | 0.21 |
| O=C(CCn1c(=O)[nH]c2ccsc2c1=O)N(CCc1ccccc1)Cc1ccccc1 | -0.716 |
| CC(C)NC(=O)CCCC(=O)NC(C)C | 0.492 |
| Cc1ccccc1NC(=O)CC1SCCNC1=O (configuration not stated) | 0.875 |
| CCOC(=O)c1c(N)sc2c(O)c(Br)ccc12 | 0.293 |
| COc1ccc(C2NC(=O)C(C)S2)cc1 (configuration not stated) | -0.0287 |

| Structure (SMILES) | z-score |
| --- | --- |
| CCNC(=O)CN(CCc1ccccc1)S(=O)(=O)c1ccc(OC)cc1 | -0.329 |
| COC(=O)c1ccc(CNC(=O)/C=C/c2cc([N+](=O)[O-])ccc2OC(F)F)cc1 | 0.0959 |
| Cc1cccc(-n2c(SCc3cc(=O)n4c(C)cccc4n3)nc3[nH]ncc3c2=O)c1 | -0.444 |
| CN(C)c1ccc(/C=N\NC(=S)SCN2C(=O)C3CCC(C)(C2=O)C3(C)C)cc1 (configuration not stated) | 1.74 |
| CC(C)OC(=O)c1cccc(-c2ccc(C=O)o2)c1 | -0.582 |
| Cc1cc(N/C=C\c2nnnn2-c2ccccc2)no1 | -0.374 |
| COc1c(C)cc(S(=O)(=O)N2CCCC2)c(C)c1C | -0.203 |
| CSc1nc2n(n1)C(c1ccccn1)C1=C(CC(C)(C)CC1=O)N2 (configuration not stated) | 0.0637 |
| [O-]/[N+](=C\c1ccccc1)[C@@H]1CCCC[C@@H]1/[N+]([O-])=C/c1ccccc1 | -0.0225 |
| Oc1ccccc1/C=N/n1c2ccccc2c2ccccc21 | -0.000452 |
| Cc1ccc2c(c1)-c1c(cnn1CC(=O)N(CCC#N)c1ccccc1)CO2 | -0.347 |
| Cc1cccc(OCc2ccc(C(=O)Nc3ccc(F)cc3)cc2)c1 | 0.135 |
| CC(=O)C(=Nc1ccccc1Cl)NNc1ccc(Cl)cc1 | 1.22 |
| Cc1ccc2c(C)c(C(=O)Nc3cccnc3)oc2c1 | -0.755 |
| Brc1ccc2[nH]ncc2c1 | 0.11 |
| c1ccc(C2(Cn3ccc4ccccc43)OCCO2)cc1 | -0.312 |
| Cc1nc2ccccc2nc(C)c1=NOCc1ccc(Cl)cc1Cl | 0.00903 |
| Clc1cccc(-c2nnc(-c3ccccc3)o2)c1 | -0.158 |
| CC1=CC(C)=Nc2ccc(C)cc2N1 | 0.00926 |
| COc1ccc(S(=O)(=O)N2CCC(C(=O)N3CCCCC3)CC2)cc1OC | 0.0946 |
| COc1cc(C2C=C(Nc3ccccc3)C(=O)N2c2ccccc2)ccc1O (configuration not stated) | -0.176 |
| CCCN1C(=O)CC(C(=O)OC)=C1C | 0.406 |
| c1ccc(-c2nccc(-c3ccc(-n4cnc5ccccc54)cc3)n2)nc1 | -0.492 |

| Structure (SMILES) | z-score |
| --- | --- |
| C/C(N)=C(/C#N)C(=O)CSc1nnc(SCc2ccc(Cl)cc2)s1 | 0.419 |
| O=C(COC(=O)C1COc2ccccc2O1)NC(=O)Nc1ccc2c(c1)OCCO2 (configuration not stated) | -0.545 |
| CC1(C)N([O-])C(c2ccccc2)=C[N+](=O)C1(C)C | -0.0764 |
| COc1ccc(-c2csc(NC(=O)c3cc(-c4cccs4)nc4ccccc34)n2)c(OC)c1 | -0.102 |
| CC1CCCCC1NC(=O)/C(C#N)=C/c1ccccc1F (configuration not stated) | -0.268 |
| O=C(O)COc1ccccc1C(Nc1ccccn1)c1cc(Cl)c2cccnc2c1O (configuration not stated) | -0.314 |
| Cc1nn(CCCC(=O)Nc2cc(Oc3ccccc3)cc([N+](=O)[O-])c2)c(C)c1[N+](=O)[O-] | 0.196 |
| CC(NS(=O)(=O)c1ccc(CCC(=O)N2CCN(C)CC2)cc1)c1ccccc1 (configuration not stated) | -0.349 |
| Cc1ccc(C23CC4CC(CC(CC(=O)N5CCOCC5)(C4)C2)C3)cc1 | 0.0728 |
| COC(=O)c1c[nH]n2c(=O)cc(CCl)nc12 | -0.195 |
| O=C(O)CSCc1ccc(C(=O)O)o1 | 0.0165 |
| CC(C)CC(C(=O)NCC1CCCO1)N(C(=O)Cn1nnc(-c2ccc(F)cc2)n1)c1cccc(C(F)(F)F)c1 (configuration not stated) | -0.289 |
| Cc1ccccc1OCc1nc(-c2ccc(-n3cccc3)cc2)no1 | 0.0241 |
| COc1cc(C(=O)Nc2ccccc2C2COC(=O)C2=N)cc(OC)c1OC (configuration not stated) | 0.336 |
| Cc1ccc(C2NC(=O)c3c(sc4c3CCN(C)C4)N2)o1 (configuration not stated) | -0.0144 |
| COc1cc(S(=O)(=O)N2CCN(c3ccccc3F)CC2)c(OC)cc1Cl | -0.354 |
| COC(=O)c1ccccc1N1C(=O)[C@@H]2C(c3ccc(Br)cc3)=NO[C@@H]2C1=O | -0.236 |
| CC1CN(S(=O)(=O)N(C)C)CCN1S(=O)(=O)N(C)C (configuration not stated) | -0.225 |
| O=C(NC1CC1)c1c[nH]c2ccc(S(=O)(=O)Nc3cccc(C(F)(F)F)c3)cc2c1=O | -0.0343 |
| CN(C)S(=O)(=O)N1CCN(c2cccc(Cl)c2)CC1 | 0.0618 |
| Cc1ccc(S(=O)(=O)N(CC(=O)Nc2cccc([N+](=O)[O-])c2)C2CCCCC2)cc1 | -0.327 |
| Cc1ccc(S(=O)(=O)Oc2ccc(/C=N/NC(=O)c3nn(C)cc3Cl)cc2)cc1 | -0.86 |
| O=C(Cn1c(=O)n2ncnc2c2c3c(sc21)CCCC3)c1ccccc1 | -0.405 |

| Structure (SMILES) | z-score |
| --- | --- |
| CCSc1nnc(NC(=O)CCc2ccccc2)s1 | -0.278 |
| COc1ccc(/C(C)=N/OCC(=O)N=Nc2c(O)[nH]c3ccccc23)cc1 | -0.165 |
| CCOC(=O)CSc1nnc(CNC(=O)c2cccs2)n1Cc1ccccc1 | -0.0719 |
| CCOC(=O)C1=C(Nc2ccccc2)CC(C)(O)C(C(=O)OCC)C1c1ccccc1 (configuration not stated) | -0.208 |
| CC(C)C(=O)Nc1nc(-c2ccccc2)ns1 | 0.375 |
| COc1ccc(CCNC(=O)CSc2nc(N)c3c(C)c(C)oc3n2)cc1OC | 0.607 |
| Nc1ccc(C(=O)OCc2nc3c(ccc4ccccc43)[nH]2)cc1 | -0.0803 |
| CCn1c(SCC(=O)Nc2ccccc2N2CCOCC2)nnc1-c1ccccc1 | -0.529 |
| COC(=O)CSc1nc(C)c(C(=O)Nc2ccccc2C)c(-c2ccc(Cl)cc2)c1C#N | -0.236 |
| COC(=O)c1ccc(S(=O)(=O)N2CCCC2)o1 | -0.42 |
| O=C(O)CCc1nn2c3ccccc3n(CCN3CCCCC3)c2nc1=O | 0.0258 |
| CC(C)CC(C(=O)NC1CCCC1)N(Cc1cccs1)C(=O)c1snc(C(N)=O)c1N (configuration not stated) | -1.07 |
| CNc1nnc(-c2ccc(N(C)C)cc2)s1 | -0.187 |
| C=C1Cn2c(nnc2-c2ccc(Cl)cc2)S1 | -0.195 |
| O=C1CCCC(O)=C1C1C2=C(CCCC2=O)Oc2ccccc21 (configuration not stated) | -0.42 |
| O=C(O)c1cc2nc(C3CC3)cc(C(F)(F)F)n2n1 | 1.23 |
| Cn1c(SCc2ccc(F)cc2)nnc1-c1cccs1 | 0.134 |
| O=S(=O)(Nc1ccccc1)c1ccc(F)cc1 | 0.0918 |
| Clc1cccc(N/N=C/c2ccc(N3CCOCC3)s2)c1 | 0.0677 |
| CCCC1(C(=O)OCC)NC(c2ccc(O)cc2)C2C(=O)N(c3ccc4c(c3)OCCO4)C(=O)C21 (configuration not stated) | 0.19 |
